# From US12006294B2, “Therapeutic compounds” (REGENTS OF THE UNIVERSITY OF MINNESOTA, priority 2017, dated 2024)
# Where a name gives a salt, the structure may show the parent alone. At least one read-out could not be matched to a standard name with certainty.
# Tests used:
# Hela Cells = assay: Cellular ER stress model (tunicamycin, WST-8 cell viability); conditions: for ERS (vs Tn): % cell survival (compound)/% cell survival (tunicamycin)
# mice = assay: Tail flick assay (analgesic potency); type: in vivo
smiles,measurement,setting,value
"N=C(N)N/N=C\c1c(Cl)cccc1Cl [BC1-55-1, (Z)-2-(2,6-dichlorobenzylidene)hydrazinecarboximidamide acetate]",ERS (vs Tn),Hela Cells,1.33
"N=C(N)N/N=C/c1c(Cl)cc(O)cc1Cl [BC1-167-1, (E)-2-(2,6-dichloro-4-hydroxybenzylidene)hydrazinecarboximidamide acetate]",ERS (vs Tn),Hela Cells,0.95
N=C(N)N/N=C\c1c(Cl)cc(O)cc1Cl [BC1-171-1],ERS (vs Tn),Hela Cells,1.08
"C/C(=N\NC(=N)N)c1c(Cl)cccc1Cl [BC1-259-2, (E)-2-(1-(2,6-dichlorophenyl)ethylidene)hydrazinecarboximidamide]",ERS (vs Tn),Hela Cells,1.30
"N=C(N)Nn1ccnc1-c1c(Cl)cccc1Cl [BC1-267-2, 1-(2-(2,6-dichlorophenyl)-1H-imidazol-1-yl)guanidine]",ERS (vs Tn),Hela Cells,1.33
"N=C(N)N/N=C/c1c(Cl)ccc(Cl)c1Cl [BC1-282-1, (E)-2-(2,3,6-trichlorobenzylidene)hydrazinecarboximidamide acetate]",ERS (vs Tn),Hela Cells,2.09
"N=C(N)N/N=C/c1ccccc1 [BC1-295-1, (E)-2-benzylidenehydrazinecarboximidamide acetate]",ERS (vs Tn),Hela Cells,1.25
"N=C(N)N/N=C/c1ccccc1Br [BC1-297-1, (E)-2-(2-bromobenzylidene)hydrazinecarboximidamide acetate]",ERS (vs Tn),Hela Cells,1.87
"Cc1ccccc1/C=N/NC(=N)N [BC2-3-1, (E)-2-(2-methylbenzylidene)hydrazinecarboximidamide acetate]",ERS (vs Tn),Hela Cells,1.69
"N=C(N)N/N=C/c1c(F)cccc1Cl [BC2-5-1, (E)-2-(2-chloro-6-fluorobenzylidene)hydrazinecarboximidamide acetate]","Tail flick latency % MPE, Mean","mice; 2 mg/kg subcutaneous, 15 min",16.8 % MPE
same,"Tail flick latency % MPE, Mean","mice; 2 mg/kg subcutaneous, 30 min",4.8 % MPE
same,"Tail flick latency % MPE, Mean","mice; 2 mg/kg subcutaneous, 45 min",9.1 % MPE
same,"Tail flick latency % MPE, Mean","mice; 2 mg/kg subcutaneous, 60 min",4.4 % MPE
same,ERS (vs Tn),Hela Cells,2.17
"N=C(N)N/N=C/c1cccc(Cl)c1 [BC2-9-1, (E)-2-(3-chlorobenzylidene)hydrazinecarboximidamide acetate]",ERS (vs Tn),Hela Cells,1.93
"N=C(N)N/N=C/c1ccccc1F [BC2-11-1, (E)-2-(2-fluorobenzylidene)hydrazinecarboximidamide acetate]",ERS (vs Tn),Hela Cells,1.08
"N=C(N)N/N=C/c1ccc(Cl)cc1 [BC2-13-1, (E)-2-(4-chlorobenzylidene)hydrazinecarboximidamide acetate]",ERS (vs Tn),Hela Cells,1.42
"N=C(N)N/N=C/c1ccc(F)cc1Cl [BC2-17-1, (E)-2-(2-chloro-4-fluorobenzylidene)hydrazinecarboximidamide acetate]",ERS (vs Tn),Hela Cells,2.16
"N=C(N)N/N=C/c1ccc(Cl)cc1F [BC2-19-1, (E)-2-(4-chloro-2-fluorobenzylidene)hydrazinecarboximidamide acetate]",ERS (vs Tn),Hela Cells,1.32
"COc1cccc(Cl)c1/C=N/NC(=N)N [BC2-25-1, (E)-2-(2-chloro-6-methoxybenzylidene)hydrazinecarboximidamide acetate]",ERS (vs Tn),Hela Cells,1.07
"N=C(N)N/N=C/c1c(Cl)cccc1C(F)(F)F [BC2-45-1, (E)-2-(2-chloro-6-(trifluoromethyl)benzylidene)hydrazinecarboximidamide acetate]","Tail flick latency % MPE, Mean","mice; 2 mg/kg subcutaneous, 15 min",57.6 % MPE
same,"Tail flick latency % MPE, Mean","mice; 2 mg/kg subcutaneous, 30 min",100.0 % MPE
same,"Tail flick latency % MPE, Mean","mice; 2 mg/kg subcutaneous, 45 min",100.0 % MPE
same,"Tail flick latency % MPE, Mean","mice; 2 mg/kg subcutaneous, 60 min",100.0 % MPE
same,ERS (vs Tn),Hela Cells,2.05
"N=C(N)N/N=C/c1c(I)cccc1I [BC2-55-2, (E)-2-(2,6-diiodobenzylidene)hydrazinecarboximidamide]",ERS (vs Tn),Hela Cells,1.46
"N=C(N)N/N=C/c1c(N)cccc1Cl [BC2-61-1, (E)-2-(2-amino-6-chlorobenzylidene)hydrazinecarboximidamide]",ERS (vs Tn),Hela Cells,1.79
"N=C(N)N/N=C/c1ccccc1N [BC2-61-2, (E)-2-(2-aminobenzylidene)hydrazinecarboximidamide]",ERS (vs Tn),Hela Cells,1.20
"N=C(N)NNCc1c(Cl)cccc1Cl [JM3-227-2, 2-(2,6-dichlorobenzyl)hydrazine-1-carboximidamide]",Compounds ERS (vs Tn),"Hela Cells; ERS activity vs Tuni = % cell survival (compound)/% cell survival (tunicamycin), compound 2.5 μM",1.18
"CN(/N=C/c1c(Cl)cccc1Cl)C(=N)N [JM3-257-2, (E)-2-(2,6-dichlorobenzylidene)-1-methylhydrazine-1-carboximidamide hydroiodide]","Tail flick latency % MPE, Mean","mice; 2 mg/kg subcutaneous, 15 min",3.3 % MPE
same,"Tail flick latency % MPE, Mean","mice; 2 mg/kg subcutaneous, 30 min",12.5 % MPE
same,"Tail flick latency % MPE, Mean","mice; 2 mg/kg subcutaneous, 45 min",14.6 % MPE
same,"Tail flick latency % MPE, Mean","mice; 2 mg/kg subcutaneous, 60 min",10.8 % MPE
same,"Tail flick latency % MPE, Mean","mice; 10 mg/kg, 15 min",18.9 % MPE
same,"Tail flick latency % MPE, Mean","mice; 10 mg/kg, 30 min",31.3 % MPE
same,"Tail flick latency % MPE, Mean","mice; 10 mg/kg, 45 min",65.5 % MPE
same,"Tail flick latency % MPE, Mean","mice; 10 mg/kg, 60 min",60.2 % MPE
same,"Tail flick latency % MPE, Mean","mice; 10 mg/kg, 75 min",65.3 % MPE
same,"Tail flick latency % MPE, Mean","mice; 10 mg/kg, 90 min",33.7 % MPE
CC(Oc1c(Cl)cccc1Cl)C1=NCCN1 (stereo not drawn) [Lofexidine HCl],"Tail flick latency % MPE, Mean","mice; 2 mg/kg subcutaneous, 15 min",92.7 % MPE
same,"Tail flick latency % MPE, Mean","mice; 2 mg/kg subcutaneous, 30 min",100.0 % MPE
same,"Tail flick latency % MPE, Mean","mice; 2 mg/kg subcutaneous, 45 min",100.0 % MPE
same,"Tail flick latency % MPE, Mean","mice; 2 mg/kg subcutaneous, 60 min",89.0 % MPE
same,"Tail flick latency % MPE, Mean","mice; 2 mg/kg subcutaneous, 75 min",92.8 % MPE
same,"Tail flick latency % MPE, Mean","mice; 2 mg/kg subcutaneous, 90 min",91.9 % MPE
